Experimental data from the supplement of paper PMC10126150.
Values marked as one replicate rest on one cluster of the flow cell; about a third of the high ones do not repeat.

Test system: ATP
Assay: switch fluorescence ratio, 500 uM ATP over buffer (Cy3 cluster intensity, sum of 5 cycles each) (fold (ratio)); higher = stronger signal-on switching upon ATP binding; sequences stand for … in TCGTCGGCAGCGTCAGATGTGTATAAGAGACAGTTTTTTTTTTTTTTTTTTTTTTTTT…TC
Details: aptamer strand: ATP DNA aptamer (quencher-CACCTGGGGGAGTATTGCGGAGGAAGG + anchor), 100 nM annealed; ATP concentration: 500 uM; one replicate
Summary of the method: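 Per cluster, summed Cy3 intensity from the target cycles was divided by that from the buffer cycles to give the fluorescence ratio, then averaged per switch-domain sequence. Clusters outside 100-1000 RFU were excluded. The Cy3-labelled switching-strand clusters, on a modified Illumina MiSeq flow-cell, were annealed to 100 nM quencher-labelled ATP aptamer and imaged in selection buffer, then after 15 min with 500 uM ATP at 22 °C, for five cycles with NaOH stripping and re-annealing between them.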
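Further: ATP exposure 15 min at 22 °C before imaging.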

| Sequence | switch fluorescence ratio |
| --- | --- |
| GAAAGTCTTG | 0.974 |
| ACAGAAATTG | 1.05 |
| CGTCGACCAT | 0.977 |
| GCTCTGTCGA | 1.23 |
| AGGGAACACT | 1.04 |
| GTGTTGGAAA | 1 |
| GGGTCAATTA | 1.02 |
| TTGGCACATT | 0.931 |
| AGATGACGTA | 0.986 |
| CGACAAACGT | 1.25 |
| CCGGTTCTCA | 1.05 |
| ACAGGGAGGT | 0.984 |
| TATGGGTATA | 1.01 |
| CAGTGATCAG | 0.973 |
| AATTCCCTAG | 1.04 |
| ATATGGGATT | 1 |
| CGCACGTTGG | 0.964 |
| ACTCTTTTTT | 1.03 |
| CGTTTTCATT | 0.955 |
| TTCATGACTA | 0.984 |
| CGAATGGTTA | 1.04 |
| CCTGTTCTAG | 1.04 |

| Sequence | switch fluorescence ratio |
| --- | --- |
| CGGATCTTCA | 1.03 |
| TTTAGAGAAG | 0.972 |
| TGTGTACTCG | 0.984 |
| CTCACGAGG | 1.03 |
| TGCCCTGTTT | 0.934 |
| ATGGTCTATG | 0.969 |
| GGGGGCTTCA | 1.05 |
| CGACTAGGGT | 0.973 |
| GCTTGGTGAG | 0.978 |
| TCGTTTGATC | 1.01 |
| ACATGTGTT | 0.984 |
| TTTAATTTAA | 1.04 |
| TGAATTTGTG | 0.912 |
| CATCAATTTA | 1.02 |
| GTAAGTTCCA | 0.995 |
| ATTAAGGGA | 1 |
| ATGAAAATAA | 0.955 |
| GATCATGTCT | 0.973 |
| TACCGTTGAC | 1.11 |
| CGGCGAGATT | 0.986 |
| GAATGTCCTC | 0.994 |
| GCTGGTATTT | 0.961 |

| Sequence | switch fluorescence ratio |
| --- | --- |
| TAAGTAATCT | 0.981 |
| CAGCTTGTCT | 1.09 |
| GACAATAGTT | 1.04 |
| TGACCTATAG | 0.99 |
| CTTTGCGCTA | 1.14 |
| CTCAATTTTG | 0.975 |
| ATGGCATGGC | 0.972 |
| AAGTATGTTT | 0.997 |
| GGATCTTATA | 0.989 |
| TGATCATAAG | 1.03 |
| ATGGCAGGC | 1.05 |
| TCGACTACGG | 1 |
| TGCCGTCCGC | 0.99 |
| ACTAGTCCGA | 1.02 |
| TCACCTATC | 1.05 |
| AGCGAATGG | 1.08 |
| TAAATCAATG | 1.01 |
| TAACTTGGTT | 1.09 |
| AAGGGCAGCA | 0.983 |
| CGCTTGTTTT | 0.956 |
| TCTGGTGTTG | 0.976 |
| GGCTCTGGGC | 1.02 |

| Sequence | switch fluorescence ratio |
| --- | --- |
| ATAGTACACT | 1.02 |
| TTAGAGCCCT | 1.02 |
| TGTGACGTC | 1.01 |
| CATTGGACGA | 0.984 |
| GGCCTTGAGT | 1.01 |
| CAAAACGTTT | 1.01 |
| GGGAGTGTGA | 1.01 |
| CACTCATCG | 1.03 |
| TTTAGAAGTC | 0.954 |
| ACGTGCATTC | 1.65 |
| TGATGGCCAG | 1.05 |
| TTAGCTAACG | 1.02 |
| GGGGGCGTAA | 1.1 |
| GGTGAGTAGC | 0.995 |
| CATGGGAATA | 0.985 |
| TGTAGCAAGT | 1.04 |
| AGGAGAGGG | 0.957 |
| ATGGTCACAT | 1.01 |
| TGGTTTATGA | 0.992 |
